One molecule from article PMC11476435, “Functional Relationships between L1CAM, LC3, ATG12, and Aβ” (International Journal of Molecular Sciences, 2024) can be followed below.

This experiment has as its target recombinant human LC3B (microtubule-associated protein 1 light-chain 3) (human, UniProt Q9GZQ8). Briefly: ELISA; competition: recombinant LC3B, ATG12 or Aβ1-42 coated; L1Fc in solution alone or with a 20-fold molar excess of Aβ, L1-LIR peptide or mutated LIR peptide as competitor, 1 h at room temperature; detected with HRP-coupled anti-Fc antibody. Conditions: both partners purified. For orientation: ELISA stands for enzyme-linked immunosorbent assay.

B1: L1Fc, extracellular domain of mouse L1 fused to Fc from human IgG (Fc fusion)
chain: not shown
notes: The methods say that the Fc fusion presents dimers, not monomeric domains; also called extracellular domain of L1; soluble L1Fc chimera; source: recombinant, production and purification described in [111]
As to B1, the binding result is given as “binds”.
